This is one part of the list.
T1: UNK ZnF1-3 (human, UniProt Q9C0B0 31-174)
T1 sequence: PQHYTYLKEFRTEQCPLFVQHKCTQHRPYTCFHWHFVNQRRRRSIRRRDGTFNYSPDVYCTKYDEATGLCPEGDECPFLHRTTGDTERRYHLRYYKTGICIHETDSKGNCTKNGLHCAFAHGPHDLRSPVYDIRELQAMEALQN

B1: chr8:26227902:26227903:+_ENSG00000221914_ENST00000315985|hu_mus|FALSE|FALSE (ssRNA)
RNA: GGGAGUUCUACAGUCCGACGAUCGAGAAUGCCAGCCUAAUUCACUUUGUCUUGAAAUAUAUACAGAUUGUUUGUAGUUGCUACAGCAAUGAUGUUUUCCUUGGGAUGCCAGGCUGUAUGAAGGAUUUUCUUGUUGAAGUCUAGCAACAGAGGAUUGAGCAUCA
B2: chr7:19721593:19721594:+_ENSMUSG00000050428_ENSMUST00000053109|mus_hu|FALSE|FALSE (ssRNA)
RNA: GGGAGUUCUACAGUCCGACGAUCACUGGGCAGGCCGCUGUCUGGUGCACGGGGCUCCCGGCCGUUGGAGAUGCGGAAGGCGAUGCGCACCUCCCCAGGGCCUGGCCCGGGCCGCUCUUCCUUGCGGAGGCCCUUGGUGGGAGGCAACAGAGGAUUGAGCAUCA
B3: chr12:114310842:114310843:+_ENSMUSG00000021143_ENSMUST00000084891|mus_mus|motif|central (ssRNA)
RNA: GGGAGUUCUACAGUCCGACGAUCUGUAAGGGAGGUGGCCUUUGUAGUCAGACCAGCAUGCUGGAGCCUUCACGGGCGGCAAACAAAUCUCUCUCUCUCUCUCUCUCACACACACACACACACACACACACACACACACACACACAACAGAGGAUUGAGCAUCA
B4: 34911504_34911624_172_CDS_ENSG00000159131_ENST00000381815|human|control|control (ssRNA)
RNA: GGGAGUUCUACAGUCCGACGAUCAGUGCCUGCGUUUCCUGGGGCAACCAACACUUGUUUGACAUGAUGAGACUGUGCAAGUUUCCAGGCCAGCGUAUGUUCCCUUCCUCCACUGCCAAUUAUAAGUACUCGGGCUGCCAUUGUCAACAGAGGAUUGAGCAUCA
B5: chr7:56126341:56126342:+_ENSG00000146731_ENST00000540286|hu_mus|hu_hu_hu_mus_True|1_8 (ssRNA)
RNA: GGGAGUUCUACAGUCCGACGAUCCAUGUUUCUCCUCUUGGCUCUGCGCAGAGCUACGAUCCCUUCUUUCGCAAGGGCAUCUAAGGAAAAGGGGUCAAUCCCCUUUUGAUUAAUAACGACAAAUCCUUUAUCUGAAUCGCCACACAACAGAGGAUUGAGCAUCA
B6: chr1:60041781:60041782:+_ENSMUSG00000041040_ENSMUST00000036540|mus_hu|mus_mus_mus_hu_False|78_98 (ssRNA)
RNA: GGGAGUUCUACAGUCCGACGAUCAAGUUUACAAUAGCUCAACUUUAGCAGUAGUGGAAUGGCAAGUUUUAUUUUCCUUCACAAAAGAAAAUCUUUAUAACCCAGUCCUAGUCUUGGACAUAGUGAAAGCUAUAAAUUCUGACUCAACAGAGGAUUGAGCAUCA
B7: chr5:37680062:37680063:+_ENSMUSG00000029121_ENSMUST00000031004|mus_hu|mus_mus_mus_hu_False|88_88 (ssRNA)
RNA: GGGAGUUCUACAGUCCGACGAUCUUUGGGUGUAGCUGGUACCUCGUACACAGGCCCGUCAUACAUGCCCCUGGAAACCCCUUGCAAUCCAAAAACCUUAUUCCUGAUUUUGACGCGCUGGUACAGGUGCUCCGGGAACGCCUUCAACAGAGGAUUGAGCAUCA
B8: chr1:225611761:225611762:-_ENSG00000143815_ENST00000272163|hu_hu|motif|central (ssRNA)
RNA: GGGAGUUCUACAGUCCGACGAUCCCAGGCCAUCGACCUCUUACCACUUCACCAUCGGCAAAUUUCCUACUUGGCAUUUUCGGUAAUUAACCUGCGCCAGGUUCCGGCGGUGACACGGACGGCUCCCGGAGAAUAGUCGCACAGCAACAGAGGAUUGAGCAUCA
B9: chr15:99827826:99827827:+_ENSMUSG00000023025_ENSMUST00000100206|mus_hu|motif|central (ssRNA)
RNA: GGGAGUUCUACAGUCCGACGAUCAUUCAUAGCAGCAGCAUUUGUUUUAUAAGAUCCUGGCGAAUUAAAGCCAUUCACAAAACGGCCAUUGGGAAAGGGAGCCAGUGGUGUUUCAAAGUAAGGUGUAGGAUUUGGAGACCAAGACAACAGAGGAUUGAGCAUCA
B10: chr4:117809766:117809767:-_ENSMUSG00000033326_ENSMUST00000106406|mus_mus|FALSE|FALSE (ssRNA)
RNA: GGGAGUUCUACAGUCCGACGAUCAUUGGGCCCAGGCAAACAAAUUCAGGAACCUGUUUAACCCCUUCAAUGUUGCCCUCUAGUCCCAUCCCACCCCCACCCUCAACCAGCCCCACCCCACCCCUGACCAAGGGCGUAGCUAUACAACAGAGGAUUGAGCAUCA
B11: chr12:112777701:112777702:+_ENSMUSG00000021282_ENSMUST00000166123|mus_mus|FALSE|FALSE (ssRNA)
RNA: GGGAGUUCUACAGUCCGACGAUCCGGUCUCUGACAUGAAAAAAUUUUCGCCACUGAGGCUGUAAGCUUCUUGCUUGUAUGCUAUGUUUCCCCAAUACAGGUACCAAUGGCUGCGCAACAGCUCGUUUUCGUCAAAUAAAGACACAACAGAGGAUUGAGCAUCA
B12: chr11:74490848:74490849:-_ENSMUSG00000020745_ENSMUST00000021091|mus_mus|FALSE|FALSE (ssRNA)
RNA: GGGAGUUCUACAGUCCGACGAUCACAGAUAGCAGGAAGAAAAACAGUAAUUAAUAAUCCAACAUAAAAUGACACUGUCAACUAUUCAGUUUAGUGCCCUAGUUCAAUUUAUUUAACUUCUGCCCUUGUAGGCCUGGUGUGACCCAACAGAGGAUUGAGCAUCA
B13: 84151872_84151992_5108_CDS_ENSMUSG00000020532_ENSMUST00000020843|mouse|control|control (ssRNA)
RNA: GGGAGUUCUACAGUCCGACGAUCGUAGAUGCGUGGGAUGCCUUCUGCUCUGGCAAGUUCAGAAGCUCUGAGAAACAGCAAAUCCUCCUGAGGCCCAAAGGAACCGAUCCGAUAUGUAAUGUCAUUGCCGAUGACAAUGAUAUCCAACAGAGGAUUGAGCAUCA
B14: 61660918_61661038_860_3pUTR_ENSG00000136485_ENST00000310827|human|control|control (ssRNA)
RNA: GGGAGUUCUACAGUCCGACGAUCUAGGGUCCUGCUUGUUCCAGCAGAGGCGAAGCAGUGGGUGAUGCUGUGGGUCUUCGUAAAUGAUGGUGCUGUGUUCUAGAUGGCGGAGGUCAAACAUCCGCACCGAGCCAUCAGCACCCACAACAGAGGAUUGAGCAUCA

biological target: T1, UNK ZnF1-3; test: nsRBNS (natural sequence RNA bind-n-seq); RBNS binding buffer (assumed for nsRBNS): 25 mM Tris pH 7.5, 150 mM KCl, 3 mM MgCl2, 0.01% Triton X-100, 500 ug/ml BSA, 20 U/ml SUPERase-In, 4 C; UNK is unkempt and MSI1 is Musashi-1; names of the RNAs are library labels; protein concentration not given here; high values mean tight binding

Row | Binder | binding signal
1 | B1 | 1.23 enrichment R
2 | B2 | 0.916 enrichment R
3 | B3 | 1.59 enrichment R
4 | B4 | 1.05 enrichment R
5 | B5 | 0.992 enrichment R
6 | B6 | 0.564 enrichment R
7 | B7 | 0.73 enrichment R
8 | B8 | 0.798 enrichment R
9 | B9 | 2.1 enrichment R
10 | B10 | 1.18 enrichment R
11 | B11 | 1.23 enrichment R
12 | B12 | 1.15 enrichment R
13 | B13 | 0.83 enrichment R
14 | B14 | 0.428 enrichment R

Source: PMC12136788
